The GPR68 mutational scans of Howard et al. (2025)

B1: GPR68, Q15743 (parent)
chain: MGNITADNSSMSCTIDHTIHQTLAPVVYVTVLVVGFPANCLSLYFGYLQIKARNELGVYLCNLTVADLFYICSLPFWLQYVLQHDNWSHGDLSCQVCGILLYENIYISVGFLCCISVDRYLAVAHPFRFHQFRTLKAAVGVSVVIWAKELLTSIYFLMHEEVIEDENQHRVCFEHYPIQAWQRAINYYRFLVGFLFPICLLLASYQGILRAVRRSHGTQKSRKDQIQRLVLSTVVIFLACFLPYHVLLLVRSVWEASCDFAKGVFNAYHFSLLLTSFNCVADPVLYCFVSETTHRDLARLRGACLAFLTCSRTGRAREAYPLGAPEASGKSGAQGEEPELLTKLHPAFQTPNSPGSGGFPTGRLA

How the values were obtained:
[1] = variants of: B1; experiment: cAMP reporter score (Enrich2 score, wild type = 0); higher = more signal; HEK293T, FACS bins
[2] = variants of: B1; experiment: surface expression score (Enrich2 score, wild type = 0); higher = more signal; HEK293T, FACS bins

Row | Variant | cAMP reporter score ([1]; pH 5.5) | cAMP reporter score ([1]; pH 6) | cAMP reporter score ([1]; pH 6, modulator: ogerin) | cAMP reporter score ([1]; pH 6.5, modulator: ogerin) | surface expression score [2]
1 | N104E | 0.646 | 5.14 | 0.735 | 2.17 | -1.33
2 | N104A | -1.6 | -1.15 | -1.42 | -1.49 | -1.87
3 | N104M | -1.19 |  |  | -2.5 | 
4 | N104I | -1.46 |  |  | -0.661 | -2.52
5 | N104P | -0.551 |  |  | -1.29 | 
6 | N104K | -1.06 | -1.27 | -1.59 | -0.491 | 2.3
7 | N104V | 1.32 |  | 1.98 | 3.39 | 
8 | N104C | -0.37 |  |  |  | -0.409
9 | I105del | -0.482 | 0.2 | -1.49 | -0.602 | -2
10 | E103_I105del | -1.21 | -1.12 | -1.3 | -1.09 | -2.31
11 | G98A | -1.24 | -1.11 | -1.52 | -1.06 | -1.2
12 | G98N | -1.52 | -0.088 | -1.44 | -1.23 | 
13 | G98R | -1.15 |  | -0.885 | 0.444 | 1.53
14 | G98I | -1.02 | -0.737 | -2.29 | -1.61 | 0.413
15 | G98W | -0.79 | -0.199 | -0.934 | -0.703 | -0.785
16 | G98L | 0.098 | -0.542 |  | -1.55 | 0.643
17 | G98E | -2.37 | -0.579 | -1.55 | -2.24 | 0.274
18 | G98V | -0.811 | -0.514 | -0.537 | -0.535 | 0.269
19 | G98H | -1.7 | -0.82 | -0.973 | -1.08 | 0.845
20 | G98Y | -0.75 | -0.731 | 0.011 | -1.04 | 1.77
21 | G98F | -1.39 | -0.33 | -2.14 | -1.05 | 0.998
22 | G98K | -2.3 | -0.685 | -1.42 | 0.138 | 2.12
23 | G98D | -1.28 | -0.314 | -2.61 | -0.541 | 0.917

Row | Variant | cAMP reporter score ([1]; pH 5.5) | cAMP reporter score ([1]; pH 6) | cAMP reporter score ([1]; pH 6, modulator: ogerin) | cAMP reporter score ([1]; pH 6.5, modulator: ogerin) | surface expression score [2]
24 | G98S | -1.68 | -1.04 | -1.51 | -1.29 | 0.696
25 | G98P | -1.54 | -0.859 | -1.86 | -1.29 | -0.664
26 | G98T | -1.34 | -1.43 | -1.48 | -1.12 | 0.897
27 | I99_L100insGSG | -1.08 | -0.744 | -1.05 |  | -3.62
28 | L100_L101insGS | -1.28 | 0.268 | -1.13 | -0.59 | -2.34
29 | Q95_V96del | -1.6 | -0.863 | -1.25 | -0.89 | -2.54
30 | C97_I99del | -1.54 | -1.7 | -1.73 | -0.794 | -2.27
31 | Y102_E103insGSG | -0.808 | -2.22 | -0.672 | -0.631 | -2.86
32 | V96_G98del | -1.04 | -0.83 | -0.325 | -0.043 | -2.21
33 | Q95_V96insGSG | 0.279 |  | -1.55 | -0.059 | -2.18
34 | I107del | -0.67 | -0.656 | -1.25 | -1.11 | -2.41
35 | L100_Y102del | -1.25 | -0.629 | -1.87 | -1.42 | -1.91
36 | L101C | -0.503 | -0.616 | -2.27 | -0.953 | -0.182
37 | L101S | -1.22 | -1.76 | -1.58 | 0.559 | -0.463
38 | L101K | -0.382 | -0.941 |  | -0.916 | -0.755
39 | L101Q | -1.91 | -1.61 | -1.46 | -1.28 | -0.962
40 | L101I | -0.568 |  |  | 0.3 | -0.422
41 | L101W | -1.03 | -0.474 | -0.989 | -1.23 | -0.115
42 | L101P | -0.402 | -0.21 | -0.545 | -0.547 | -0.546
43 | L101R | -0.532 | -0.945 | -2.08 | -1.45 | -0.988
44 | L101H | -1.92 | -0.311 | -0.343 | -1.62 | -0.429
45 | L101Y | 0.52 |  |  | 1.77 | -1.36
46 | L101F | -0.132 |  | -1.49 | -1.07 | -0.916

Row | Variant | cAMP reporter score ([1]; pH 5.5) | cAMP reporter score ([1]; pH 6) | cAMP reporter score ([1]; pH 6, modulator: ogerin) | cAMP reporter score ([1]; pH 6.5, modulator: ogerin) | surface expression score [2]
47 | L101N | -1.09 |  | -1.66 | -1.04 | 
48 | L101G | -0.502 |  | -1.64 |  | -0.028
49 | L101M | 1.6 |  |  |  | 1.96
50 | L101A | -0.67 | -0.311 | -0.472 | -0.644 | 0.604
51 | L101D | -0.413 | -0.762 |  |  | -1.63
52 | L101V | -0.675 | -0.134 | -0.449 | -1.64 | -0.023
53 | L101E | -2.17 |  | -0.75 |  | 
54 | I99del | -1.34 | -1.14 |  | -0.583 | -1.79
55 | Q95L | -1.6 | -0.314 |  | -1.43 | 
56 | Q95W | -0.543 |  | -0.602 | 0.077 | 
57 | Q95T | -0.347 |  | 0.378 | 2.46 | -0.178
58 | Q95S | 2.19 | 5.17 | 2.72 | 5.44 | 1.27
59 | Q95P | -1.56 | 0.067 | -1.82 | -0.829 | -3.37
60 | Q95K | 0.634 | 1.07 | 0.772 | 1.62 | 1.17
61 | Q95R | -0.374 | -0.071 | -0.695 | -0.401 | 0.232
62 | Q95V | -1.45 |  | -0.958 | 1.24 | 
63 | Q95Y | 0.154 |  | 0.448 |  | -0.79
64 | Q95M | 0.647 | 3.12 | 1.17 | 2.51 | 0.295
65 | Q95N | -0.469 | 0.496 | 0.38 | 1.92 | -0.276
66 | L101_Y102insGS | -2.83 |  | -0.24 |  | -2.14
67 | I107_S108insGSG | -0.412 |  | -0.683 |  | 
68 | L101_Y102insGSG | -0.406 | -1.4 |  | -2.02 | -2.46
69 | V96_C97insGS | -2.24 | -1.22 | -2.6 | -1.34 | -2

The least precise scores are not listed. The source holds two more conditions with little spread; they are left out. Read del as a deletion of the residues named and ins as an insertion between two positions. For some assays here: How much ogerin was present is not stated here.
